# Experimental data: US20230398232A1, “Composition and Use of Alternatively Formatted Anti-Mesothelin Antibodies for the Treatment of Cancer” (Navrogen, Inc., priority 2020, published 2023)
# B1: MES-1: anti-mesothelin antibody of SEQ ID NO: 1 (light chain) and SEQ ID NO: 2 (heavy chain), CA125 refractory (antibody, listed as Oryctolagus cuniculus)
# heavy: EVQLVESGGGLVQPGGSLRLSCAASGFDLGFYFYACWVRQAPGKGLEWVSCIYTAGSGSTYYASWAKGRFTISRDNSKNTLYLQMNSLRAEDTAVYYCARSTANTRSTYYLNLWGQGTLVTVSS[left out - human IgG1 constant region]
# light: DIQMTQSPSSLSASVGDRVTITCQASQRISSYLSWYQQKPGKVPKLLIYGASTLASGVPSRFSGSGSGTDFTLTISSLQPEDVATYYCQSYAYFDSNNWHAFGGGTKVEIKRTVAAPSVFIFPPSDEQLKSGTASVVCLLNNFYPREAKVQWKVDNALQSGNSQESVTEQDSKDSTYSLSSTLTLSKADYEKHKVYACEVTHQGLSSPVTKSFNRGEC
# B2: SN38-MES-ADC (conjugate)
# light: B1 light
# heavy: B1 heavy
# B3: PNU-MES-ADC (conjugate)
# light: B1 light
# heavy: B1 heavy
# B4: MES-BSP: bispecific antibody, SEQ ID NO: 3 (single chain anti-CD3 fused to MES-1 light chain) and SEQ ID NO: 2 (protein)
# light: QVQLVESGGGVVQPGRSLRLSCAASGYTFTRYTMHWVRQAPGKCLEWIGYINPSRGYTNYNQKVKGRFTISRDNSKNTAYLQMNSLRAEDTAVYYCARYYDDHYCLDYWGQGTLVTVSSGGGGSGGGGSGGGGSGGGGSDIQMTQSPSSLSASVGDRVTITCSASSSVSYMNWYQQKPGKAPKLLIYDTSKLASGVPSRFSGSGSGTDYTFTISSLQPEDIATYYCQQWSSNPFTFGCGTKLEIKGGGGSDIQMTQSPSSLSASVGDRVTITCQASQRISSYLSWYQQKPGKVPKLLIYGASTLASGVPSRFSGSGSGTDFTLTISSLQPEDVATYYCQSYAYFDSNNWHAFGGGTKVEIKRTVAAPSVFIFPPSDEQLKSGTASVVCLLNNFYPREAKVQWKVDNALQSGNSQESVTEQDSKDSTYSLSSTLTLSKADYEKHKVYACEVTHQGLSSPVTKSFNRGEC
# heavy: B1 heavy
# Assays:
# [1] = test system: OVCAR3 CA125 knockdown line (OVCAR-KO); assay: pHrodo antibody internalization assay, OVCAR-KO; format: cell-based, human; details: over 24 hours
# OVCAR3 cells = assay: Jurkat-CD16a ADCC reporter assay, OVCAR3; format: cell-based, human; details: OVCAR3, CA125 expressing
# [2] = test system: OVCAR3 cells (mesothelin and membrane bound CA125); assay: pHrodo antibody internalization assay, OVCAR3; format: cell-based, human; details: OVCAR3, CA125 expressing; over 24 hours
# human CA125 protein = assay: ELISA screen for binding of anti-mesothelin antibodies by CA125; details: 15 KU/mL soluble CA125 coated, 2.5 μg/mL antibody, 450 nm
# [3] = test system: OVCAR3 ovarian cancer cell line; assay: PBMC immune-mediated killing of OVCAR3 (Cell Titer GLO); format: cell-based; details: OVCAR3 plus human PBMCs; 72 hours
# [4] = test system: mesothelin negative A549 and CHO cells; assay: MES-ADC killing of mesothelin-negative control lines; format: cell-based; details: A549 or CHO; 72 hours
# [5] = test system: mesothelin-positive NCI-N87, SW1990, HAY, YOU, OVCAR3, CHO-MES cells; assay: MES-ADC killing of mesothelin-positive cell lines, crystal violet; format: cell-based; details: mesothelin expressing lines irrespective of CA125 status; cleavable linkers; 72 hours
# [6] = test system: NCI-N87 gastric cancer xenograft; assay: NCI-N87 gastric cancer CDX model; format: in vivo, SCID mice; details: for in vivo efficacy, cleavable versus non-enzymatic cleavable format: comparison of formats
# [7] = test system: SW1990 pancreatic cancer xenograft; assay: SW1990 pancreatic cancer CDX model; format: in vivo, athymic nude mice; details: day 39
# [8] = test system: PXF1118 mesothelioma PDX (CA125 high); assay: PXF1118 PDX model; format: in vivo, athymic nude mice; details: 0.625 mg/kg day 1, 4, 8 and 0.4 mg/kg day 12, 16, 20, i.v., p≤0.012
# NCI-N87 and SW1990 cells = assay: PNU-MES-ADC linker format potency comparison; format: cell-based, human
# [9] = test system: CA125 positive, mesothelin-expressing PXF1118 tumors; assay: PXF1118 PDX, single and multiple dosing; format: in vivo, athymic nude mice
# [10] = test system: LXFA983 NSCLC PDX (CA125 low); assay: LXFA983 NSCLC PDX model; format: in vivo, athymic nude mice; details: 0.625 mg/kg day 1, 4, 8 and 0.4 mg/kg day 12, 16, i.v., p≤0.0003
# [11] = test system: OVCAR3-CA125 knockdown (OVCAR-KO) cell line; assay: Jurkat-CD16a ADCC reporter assay, OVCAR-KO; format: cell-based, human
# [12] = test system: mesothelin positive, CA125 expressing human mesothelioma cell line; assay: Humanized PBMC nude mouse mesothelioma model; format: in vivo, athymic nude mice
# [13] = listed as PNU-MES-ADC cleavable format
molecule,measurement,setting,value
B1,antibody uptake (intracellular fluorescence),[1],efficient uptake
same,ADCC activity (luciferase readout),OVCAR3 cells,significantly higher ADCC activity against OVCAR3 than meso-Ab-4
same,antibody uptake (intracellular fluorescence),[2],efficient uptake
same,binding of antibody by CA125 (ELISA),human CA125 protein,not bound by CA125
same,binding of antibody by CA125 (ELISA),human CA125 protein; listed as meso-Ab3,did not
same,PBMC immune-mediated target cell killing,[3],showed tumor cell killing
B2,cell killing of mesothelin-negative lines,[4],unaffected
same,target cell killing,[5],most potent targeted killing effect; also recorded: most significant cell killing
same,reduced tumor growth,"[6]; 20 mg/kg i.v. day 1, 3, 5, 7, 9, 11, 13, 15, p≤0.011",48%
same,"in vivo efficacy, cleavable versus non-enzymatic cleavable format",[6],significantly more efficacious in vivo
same,reduced tumor growth vs. vehicle-treated group,"[7]; 10 mg/kg i.v. day 8, 9, 10, P≤0.049",25%
same,reduced tumor growth vs. vehicle-treated group,"[7]; 20 mg/kg i.v. day 8, 9, 10, P≤0.0003",53%
B3,tumor response,[8],equally effective in killing and causing regression of both tumors
same,tumor response,[8]; [13],induced significant tumor regression
same,potency of cleavable format versus non-enzymatic cleavable format,NCI-N87 and SW1990 cells; MA-PEG4-VC-PAB-DMAE vs MC-EDA linker,~100 fold
same,"potency, enzymatic cleavable versus non-enzymatic cleavable format",NCI-N87 and SW1990 cells; NCI-N87 and SW1990 cells,significantly more potent
same,tumor response,"[9]; 0.25 mg/kg on day 1, 8 and 15",durable response
same,duration of durable response,[9]; single dose 0.75 mg/kg,more than 50 days
same,tumor response,"[9]; single dose 0.75 mg/kg on day 1, day 49, P≤0.0061, 0.75 mg/kg",equally effective in killing and causing regression of tumors
same,tumor response,"[9]; single dose 0.75 mg/kg on day 1, day 49, P≤0.0061, listed as MES-ADC, 0.75 mg/kg",significantly reduce established tumor growth
same,tumor response,[10],equally effective in killing and causing regression of both tumors
same,tumor response,[10]; [13],induced significant tumor regression
same,cell killing of mesothelin-negative lines,[4],unaffected
same,target cell killing,[5],most potent targeted killing effect; also recorded: most robust killing activity; also recorded: most significant cell killing
same,reduced tumor growth,"[6]; 0.5 mg/kg i.v. day 1, 8, 15, 25, 32, 44, p≤0.050",45%
same,"in vivo efficacy, cleavable versus non-enzymatic cleavable format",[6],significantly more efficacious in vivo
B4,ADCC activity (luciferase readout),OVCAR3 cells,equally effective
same,ADCC activity (luciferase readout),[11],equally effective
same,reduction of tumors as compared to control treated mice,"[12]; 3 mg/kg 3×QOD for 3 weeks, human PBMCs i.p., P=0.033",70%
same,tumor growth suppression,[12]; humanized PBMC mouse model,able to statistically suppress tumor growth
same,PBMC immune-mediated target cell killing,[3],significantly higher killing; also recorded: significantly the highest target cell killing

# Entries after “also recorded” stand apart in the source; their conditions may differ.
